According to PubChem BioAssay AID504466 (National Center for Advancing Translational Sciences (NCATS), 2011):
The whole screen tested about 330,000 compounds, of which about 4,200 (1.3%) were called active. Inconclusive results, whose numbers are uncertain, are shown with a selection of clear calls. The call rests on the fitted dose curve; in most records, active means well fitted activation curve with a large enough effect; inconclusive means small, poorly fitted or top-dose-only effect; inactive means no such curve, though single readings can be large or run the other way. Where the call is inconclusive, the potency comes from a doubtful curve fit.

Assay: qHTS screen for small molecules that induce genotoxicity in human embryonic kidney (HEK293T) cells expressing luciferase-tagged ELG1; further: nearly all actives have a fitted effect of over 60% in size; on activity change, positive = activation: % of control where 0% means no effect
Settings: HEK293T ELG1-luciferase reporter, luminescence, 16 h; series mostly up to 46 µM
How it was run: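 Reporter readout depends on ELG1 protein level, which increases with genetic stress. After 16 hr compound exposure at 37 °C, luciferase activity was quantified using ONE-Glo.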
Potency means the concentration at half of the fitted maximal effect; tags describe the fitted curve by direction and shape.

Row | SMILES | activity change, positive = activation | Potency
1 | O=C(Cn1ncc2c([nH]c3ccccc32)c1=O)NCCc1ccccc1 | inactive: -1.73% [at 9.26 µM] | 
2 | COc1ccc(N(CC(=O)N/N=C/c2ccccc2F)S(=O)(=O)c2ccccc2)cc1 |  | inactive
3 | COc1cc(C)nc(NC(=O)COc2ccc(Cl)cc2C)n1 |  | inconclusive: 14.6 µM [activator, partial curve, poor fit]
4 | O=C(Nc1ccc(NC(=O)c2ccccc2F)cc1)c1cccs1 |  | inconclusive: 20.6 µM [activator, partial curve, poor fit]
5 | Cc1cc(C(=O)CSc2nnnn2C)c(C)n1C1CC1 |  | inconclusive: 20.6 µM [activator, partial curve]
6 | Cc1ccc(Sc2ncccc2C(=O)NCc2cc([N+](=O)[O-])ccc2O)c(C)c1 |  | inconclusive: 23.1 µM [activator, single point]
7 | Cc1cc(C)c2c(N)c(C(=O)NN)sc2n1 |  | inactive
8 | CC(C)Cc1cc(C(=O)NCc2ccco2)no1 |  | inconclusive: 18.3 µM [activator, partial curve]
9 | CC(=O)NC(c1ccccc1)c1cc(Cl)c2cccnc2c1O (stereo not drawn) |  | inconclusive: 32.6 µM [activator, partial curve, poor fit]
10 | Cc1cc2c(C)nc(-c3ccccc3)nc2o1 |  | active: 16.4 µM
11 | COC(=O)C(Cc1ccc(O)cc1)N1Cc2ccccc2C1=O (stereo not drawn) |  | inconclusive: 18.3 µM [activator, partial curve]
12 | CC(OC(=O)c1ccc2ccccc2n1)C(=O)Nc1ccc(N2CCOCC2)cc1 (stereo not drawn) |  | inconclusive: 25.9 µM [activator, single point]
13 | Cc1ccc(C(=O)NCCCNC(=O)COc2ccc(C)c(C)c2)cn1 |  | inactive
14 | O=C(Oc1ccc(C(=S)N2CCOCC2)cc1)c1ccccc1F |  | inactive
15 | CCOC(=O)c1nn(-c2ccc(C)c(C)c2)cc1O |  | active: 6.51 µM
16 | O=S(=O)(c1cccc(-c2cn3ccccc3n2)c1)N1CCCCC1 |  | inactive
17 | COc1cccc(/C(C)=N/Nc2ncc(Cl)cc2Cl)c1 |  | inconclusive: 14.6 µM [activator, partial curve, poor fit]
18 | CCOc1cc(/C=C/c2nc3ccccc3c(=O)[nH]2)cc(Br)c1OC |  | inconclusive: 20.6 µM [activator, single point]
19 | COc1cc(/C=C2/SC(=O)NC2=O)ccc1OCc1ccccc1 |  | inactive
20 | Cc1cc(C(=O)COC(=O)c2ccc(F)cc2)c(C)n1C |  | inconclusive: 3.26 µM [activator, full curve]
21 | O=C(NCCOc1ccc(Cl)cc1)c1ccc2c(c1)OCCO2 |  | inconclusive: 18.3 µM [activator, partial curve]
22 | Cc1cc(NC(=O)c2ccc(C)c(C)c2)no1 |  | inconclusive: 10.3 µM [activator, partial curve]
23 | CCOc1ccc(OCc2ccc(C(=O)NCc3ccncc3)o2)cc1 |  | inconclusive: 23.1 µM [activator, partial curve, poor fit]
24 | CCOc1ccc(C(=O)N(CC)CC(=O)Nc2ccc3c(c2)OCCO3)cc1 |  | inconclusive: 20.6 µM [activator, partial curve, poor fit]

Row | SMILES | activity change, positive = activation | Potency
25 | NC(=O)c1cc(S(=O)(=O)Nc2ccccc2)cs1 |  | inactive
26 | COc1cc(OC)c(/C=C2\SC(=O)N(CC(=O)Nc3ccccc3F)C2=O)c(OC)c1 |  | inconclusive: 29.1 µM [activator, partial curve, poor fit]
27 | COc1cc(C(=O)Nc2ccc(S(=O)(=O)NC(C)C)cc2)cc(OC)c1OC |  | inactive
28 | CC(C)(C)NC(=O)Cn1nnc(-c2ccccc2Cl)n1 |  | inconclusive: 10.3 µM [activator, partial curve, poor fit]
29 | CCN1CCN(C(=O)/C=C/c2ccc(C)o2)CC1 |  | inactive
30 | COC(=O)c1cccc(NC(=O)/C=C/c2cccc([N+](=O)[O-])c2)c1 |  | inactive
31 | CCC(=O)N1c2ccccc2[C@@H](N(C(C)=O)c2ccccc2)C[C@H]1C |  | active: 23.1 µM
32 | CC(=O)N1N=C(c2ccc(C)o2)CC1c1ccc(Br)cc1 (stereo not drawn) |  | inconclusive: 11.6 µM [activator, partial curve]
33 | O=C(Nc1cccc(C(=O)NC2CCCC2)c1)c1ccccc1 |  | inactive
34 | CC(=O)c1c(C)[nH]c(C(=O)Nc2nccs2)c1C |  | inconclusive: 23.1 µM [activator, single point]
35 | O=C(c1cc(-c2cccs2)on1)N1CCCc2ccccc21 |  | inconclusive: 18.4 µM [activator, partial curve]
36 | Oc1ccc(N=Nc2ccc3ccccc3c2)cc1 |  | active: 2.31 µM
37 | O=C(NCCC1=CCCCC1)C1COc2ccccc2O1 (stereo not drawn) |  | inconclusive: 25.9 µM [activator, partial curve, poor fit]
38 | Cn1c(=O)c2c(nc(CN3CCc4ccccc4C3)n2Cc2ccccc2)n(C)c1=O |  | inactive
39 | NC(=O)Nc1ccc2c(c1)OCCO2 |  | inconclusive: 23.1 µM [activator, single point]
40 | Cc1nc(-c2ccc(F)cc2)c(CC(=O)N(C)CC(=O)Nc2ccc(F)cc2)s1 |  | inactive
41 | O=C(NCCc1ccccc1F)c1ccc2c(c1)OCCO2 |  | inconclusive: 0.0164 µM [activator, full curve, poor fit]
42 | COc1nc(-c2ccccc2)ccc1-c1noc(-c2ccco2)n1 |  | active: 20.6 µM
43 | CN(C)/C=C/C(=O)c1ccc(-c2ccc(Cl)cc2Cl)o1 |  | inconclusive: 20.6 µM [activator, single point]
44 | COC(=O)c1coc(-c2ccc(OC)cc2)c1C(=O)OC |  | inconclusive: 8.2 µM [activator, partial curve]
45 | Cc1nc(N2CCOCC2)c2c(C)c(C(=O)Nc3ccccc3C(F)(F)F)sc2n1 |  | inactive
46 | COc1ccc(S(=O)(=O)N(CC(=O)NCc2ccco2)c2ccccc2OC)cc1 |  | inactive
47 | c1ccc(-c2noc(C34CC5CC(CC(C5)C3)C4)n2)cc1 |  | inconclusive: 18.4 µM [activator, partial curve, poor fit]
48 | CCn1c(SCC(=O)Nc2cccc(C)c2)nc2nc3c(cc2c1=O)COC(C)(C)C3 |  | inactive
